Variants at the background level are over-represented here.
B1: tRNA (parent)
chain: CUCUCGGUAGCCAAGUUGGUUUAAGGCGCAAGACUUUAAUUUAUCACUACGAAAUCUUGAGAUCGGGCGUUCGACUCGCCCCCGGGAGAUUUUUUCCUCGAGCAA

Variants of: B1
Assay: nonsense suppression (GFP-seq) (ratio to wild type); higher = more function; SUP4oc tRNA, yeast GFP reporter sort-seq
Summary of the method: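 Raffinose/galactose medium with 80 mg/L adenine was used to grow yeast carrying genome-integrated tRNA variants (~3% random-mutation library), RFP, and a galactose-driven GFP ochre reporter. Cells went into GFP/RFP bins, which were Illumina-sequenced, and variants with ≥100 reads and ≥30 cells were scored. Nonsense suppression (GFPSEQ) is the per-bin median GFP/RFP weighted by estimated cell share and expressed relative to the unmutated parent tRNA.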

Variant | nonsense suppression
U21G A89G | 0.0399
U20G G73U | ≤ 0.026
U20C U57C U58G G61C | ≤ 0.026
U21G G65A | 0.0483
U20G A31U G84U | ≤ 0.026
U20C G69C | ≤ 0.026
U20C G69A | ≤ 0.026
U21C C72G A89U | ≤ 0.026
U20G A23U C77G | ≤ 0.026
U20C G65U G66C | ≤ 0.026
U21A U55G U57C G86A | ≤ 0.026
G19U G66C G85C | ≤ 0.026
U20C C34A U76G | ≤ 0.026
U21G G28A A31G | 0.266
U20C C81U | ≤ 0.026
U21C A24U U63A G88U | ≤ 0.026
U20C U76A | ≤ 0.026
U21G G59A | ≤ 0.026
U21G G66C | ≤ 0.026
U21C U22C G26U | ≤ 0.026
G19U G26A U70A | ≤ 0.026
U21C C81U | 1.14
U21C C81G | ≤ 0.026
U20C G28A U55G U63C | ≤ 0.026

Variant | nonsense suppression
U20A A24C | 0.192
U22A A23C | 0.153
U21C A24C G28U A87G | ≤ 0.026
U20G C68A C72G C82A | ≤ 0.026
U21A A54U | 0.737
G19U G28C | ≤ 0.026
U21G A62G | ≤ 0.026
U21G C75A | 1.06
U21G C75G | 1.05
U21C G32U A60U | ≤ 0.026
U21C U63G | 0.805
U21G U71C | 0.0265
U21C U55G | ≤ 0.026
U20G A30G A54C C77A | ≤ 0.026
U20A C83G | ≤ 0.026
U20G G25C | ≤ 0.026
U22A A74G C82A | ≤ 0.026
U20G G25A G61U | ≤ 0.026
U20C G65C U76C G85U | ≤ 0.026
U20C G59A | 0.0894
U21A A30C C34G | ≤ 0.026
U20C A23U A24U A62U | ≤ 0.026
U20A G28C G65A | ≤ 0.026
U21G U22C | 1.09

Variant | nonsense suppression
U21A A89G | ≤ 0.026
U21A A33C A74G | ≤ 0.026
U20C U63C | ≤ 0.026
U20A G28U G59U | ≤ 0.026
U20A A33C | ≤ 0.026
U21A G26C C64A | ≤ 0.026
U21C G26U G67A C80G | ≤ 0.026
U21C U57G G67C C77A | ≤ 0.026
U20G C82U | 0.838
U21G U22C G59U | ≤ 0.026
U20C A31U G88A | ≤ 0.026
U21A C79G | ≤ 0.026
U21A C79U | 0.444
U21A C27A A31G | ≤ 0.026
U20C U35A U57C G59A C80U | ≤ 0.026
U21C U35A C64A | ≤ 0.026
U20G U55C A74G | ≤ 0.026
U20C A62C C75U C81A | ≤ 0.026
U20A A60U G61A C72U G85U G88A | ≤ 0.026
U20G G25C G85A | ≤ 0.026
U20C G32C | ≤ 0.026
U20G A54G C77A | ≤ 0.026
U20G C64U C81A | ≤ 0.026
U21A U22G U76A C77A G88A | ≤ 0.026

Variant | nonsense suppression
U21G C34U | ≤ 0.026
U20C U58A U71A | ≤ 0.026
G19U U57G G86U | ≤ 0.026
U20A G26C U63A | ≤ 0.026
U20G G78A C79U | ≤ 0.026
U20C A33U C72U C79G A87G | ≤ 0.026
U20G A23C C77U C79G | ≤ 0.026
U21G A24U A33U | ≤ 0.026
U20C A54U U57C | ≤ 0.026
U20A G25C A87G | ≤ 0.026
U21C A62G | 0.0282
U21C A62C | ≤ 0.026
U20C A54U | 0.62
U21C A54C U63G C82G | ≤ 0.026
U21C A54C U63G C82U | ≤ 0.026
U22A C27U C34U | ≤ 0.026
U21G C29U C56G | ≤ 0.026
U20G A23C G65A | ≤ 0.026
G19U U57C U63G C82U G88U | ≤ 0.026
U20A G28U C34U A60G G66U | ≤ 0.026
U20G A62U | ≤ 0.026
U20C U55C A62G G65U | ≤ 0.026
U21G G32U C56G G66U G85C | ≤ 0.026
U21G C29G A33C | ≤ 0.026

Variant | nonsense suppression
G19U G78C | ≤ 0.026
U21G G28C | 0.211
U21G G28A | 1.14
U20A G61A U76A | ≤ 0.026
G19U U20C G59A | ≤ 0.026
U20G C27U C29A G32U U63C | ≤ 0.026
U20G G25U G61A C79G | ≤ 0.026
G19U C79U G84C | ≤ 0.026
U20A C75G | 0.473
U21G A62G C64A | ≤ 0.026
U21A G25U C27A G67C G73C | ≤ 0.026
U20G G65C G73C | ≤ 0.026
U21G C27G G86U | ≤ 0.026
U21G U35A U57C G69C G73U | ≤ 0.026
U21C A31U G59C A60U U63G C80G | ≤ 0.026
U20A A31U | ≤ 0.026
U21G A33U U57C U58A A89U | ≤ 0.026
U20C G67A U70A C77G | ≤ 0.026
U22A A24C C68U | 0.215
U20C A30C C56G A60C C81A G85A G88C | ≤ 0.026
U20A U21C U71C | ≤ 0.026
U20C G66C | ≤ 0.026
U21G U35G G78A | ≤ 0.026
U21C A33G U57G U70G | ≤ 0.026

Variant | nonsense suppression
U20G C77G | ≤ 0.026
U20A G28A A62C | ≤ 0.026
U20G G67A | 0.0529
U21A A62G C81G | ≤ 0.026
U20G G59U G78C | ≤ 0.026
U21G G88C | ≤ 0.026
U20A U76G | ≤ 0.026
U20G A23C C56A | ≤ 0.026
G19U G61C | ≤ 0.026
U20G G65C C80A | ≤ 0.026
U20A A24G C29G | ≤ 0.026
U20C A30G A62U | ≤ 0.026
U20G G85C G88A | ≤ 0.026
U21G U22C G69U G73C | ≤ 0.026
U21C U70A | ≤ 0.026
U21C U70G | ≤ 0.026
G19U U21G | ≤ 0.026
U20A G66U | ≤ 0.026
G19U G28U U35G G88U | ≤ 0.026
U20A G84U A89U | ≤ 0.026
U21A G59A U76C | ≤ 0.026
U20C C72U C82A | ≤ 0.026
U20C G78U | 0.0456
U20C C29G | ≤ 0.026

Variant | nonsense suppression
U20G C64U G84A | ≤ 0.026
U20G U21C C64A C68G | ≤ 0.026
U21C U57C C80U G85A | ≤ 0.026
U20G G88U | ≤ 0.026
U21G C27U A54C C56U G66C | ≤ 0.026
U20C G32U C79G | ≤ 0.026
U21A C27G | ≤ 0.026
U21G A60G A87C | ≤ 0.026
U21G G61U U63G A89C | ≤ 0.026
U20C U58A G73A C82U | ≤ 0.026
U20A A60C C80A | ≤ 0.026
U21G A31C G85A | ≤ 0.026
U20C A33C | ≤ 0.026
U21A U55C C79U | ≤ 0.026
U21A U22G A24U C68G U76A C81A | ≤ 0.026
U21G G28U C56G G65C | ≤ 0.026
U21G G78U | 0.034
U20A A33U G84U | ≤ 0.026
U20A A30C U63A C83G | ≤ 0.026
U20A A23U | ≤ 0.026
U20A A24U U63A | ≤ 0.026
G19U G85A | ≤ 0.026
U20A G32C A33G C34A | ≤ 0.026

Source: the RNAGym collection of RNA variant scans (doi:10.1101/gad.245936.114)
